# Data from PubChem BioAssay AID1745853 (National Center for Advancing Translational Sciences (NCATS), 2022).
# The list shows a part of the results. Further columns of the screen follow, without active or inactive calls.
# What was measured:
# Experiment in all cases: Primary Screen for Target Class Profiling of Small Molecule Inhibitors of Methyltransferases
# [1] = target: Glycine N-methyltransferase (Homo sapiens) (UniProt Q14749); details: purified enzyme, MTase-Glo SAH luminescence; measured here: GNMT inhibition; at 40 µM; stronger effect = lower value
# In short: (§1)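 Each enzyme was reacted with SAM and its substrate, with compounds tested once at 40 uM; SAH formed was read by MTase-Glo luminescence.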
# [2] = target: Guanidinoacetate N-methyltransferase (Homo sapiens) (UniProt Q14353); details: purified enzyme, MTase-Glo SAH luminescence; measured here: GAMT inhibition; at 40 µM; stronger effect = lower value
# In short: as §1
# [3] = target: Histamine N-methyltransferase (Homo sapiens) (UniProt P50135); details: purified enzyme, MTase-Glo SAH luminescence; measured here: HNMT inhibition; at 40 µM; stronger effect = lower value
# In short: as §1
# [4] = target: Nicotinamide N-methyltransferase (Homo sapiens) (UniProt P40261); details: purified enzyme, MTase-Glo SAH luminescence; measured here: NNMT inhibition; at 40 µM; stronger effect = lower value
# In short: as §1
# [5] = target: Phenylethanolamine N-methyltransferase (Homo sapiens) (UniProt P11086); details: purified enzyme, MTase-Glo SAH luminescence; measured here: PNMT inhibition; at 40 µM; stronger effect = lower value
# In short: as §1
# % is set by controls: 0 for no effect and ±100 for the full control effect.
SMILES,"activity change, negative = inhibition [1]","activity change, negative = inhibition [2]","activity change, negative = inhibition [3]","activity change, negative = inhibition [4]","activity change, negative = inhibition [5]"
CC1(C)[C@@H]2CC=C(CO[C@@H]3O[C@H](CO[C@@H]4OC[C@H](O)[C@H](O)[C@H]4O)[C@@H](O)[C@H](O)[C@H]3O)[C@H]1C2,4.65%,4.84%,10.5%,-8.01%,7.32%
COCCOCC(=O)N1CCC(N2C(=O)CCC2C(=O)NCc2ccccc2)CC1 (centres undefined),-6.69%,-4.43%,-4.72%,-10.2%,-4.79%
O=C(CCc1nnc2n(Cc3ccccc3Cl)c(=O)c3ccccc3n12)N1CCN(C2CCCCC2)CC1,-8.9%,3.73%,-3.69%,-1.43%,-1.1%
CC(C)c1noc(-c2cn(C3CCN(C(=O)c4ccc5ccccc5n4)C3)nn2)n1 (centres undefined),-4.13%,3.46%,2.54%,-8.41%,-17.7%
CCCC1c2ccc(C)n2CCN1C(=O)Nc1ccccc1OCC (centres undefined),3.46%,-0.148%,-4.51%,6.73%,-0.76%
C=CCn1c(=O)c2ccc(C(=O)NC(C)C)cc2n2c(=O)n(CC(=O)Nc3ccc(Cl)cc3)nc12,3.54%,0%,4.06%,2.51%,3.76%
Clc1ccc(-c2nnn3c2nc(NC2CCCC2)c2ccccc23)cc1,-1.92%,7.87%,2.19%,-1.84%,-1.09%
Cc1ccc(C)c(NC(=O)c2ncn3c2C(=O)N(C2CC2)C(C)(C(=O)NCc2ccc(F)cc2)C3)c1 (centres undefined),-2.45%,0.439%,11.4%,-0.289%,13.5%
Cc1ccnc(NS(=O)(=O)c2ccc(NC(=O)Nc3ccc(S(=O)(=O)Nc4nccc(C)n4)cc3)cc2)n1,-2.04%,-0.269%,5.18%,-7.9%,2.18%
Cc1ccc(C2(C(=O)N3CCC(n4nc(-c5ccccc5)oc4=O)CC3)CC2)cc1,-5.33%,-5.64%,-7.37%,-30%,-17.9%
Cc1ccc(C2=NC3(CCN(C(=O)c4n[nH]c5c4CCCC5)CC3)ON2)cc1,-12.9%,-9.51%,-11.9%,-24.8%,-10.4%
O=C(O)C1=CO[C@@H](O[C@@H]2O[C@H](CO)[C@@H](O)[C@H](O)[C@H]2O)[C@@H]2C(CO)=CC[C@H]12,5.67%,6.09%,11.8%,-5.33%,7.06%
CC1CCC2C(C)(C)CC(C)(CO)C2(O)C1C(=O)O (centres undefined),4.47%,1.75%,8.52%,-8.74%,4.75%
Cc1cc(N2C(=O)c3ccc(-c4ccco4)n3CC2(C)C(=O)NC2CCCC2)ccc1Br (centres undefined),-12.5%,-14.6%,-3.44%,-17.4%,-11.5%
C#CCCCn1cc(-c2cccc3c2N[C@@H](C)CC(=O)N3)cn1,-6.02%,-5.57%,-1.42%,-19.8%,0.079%
COc1ccc(NS(=O)(=O)c2ccc3c(c2)[C@H]2C=CC[C@H]2[C@@H](c2cccc(OC)c2OC)N3)cc1,-13.9%,-0.048%,-15%,-5.83%,-15.6%
CS(=O)(=O)NC[C@H]1Cn2ccnc2CO1,-0.852%,1.92%,2.06%,0.021%,7.64%
CCOc1ccc(C(=O)Cn2nc3n(CC(C)C)c(=O)c4ccc(C(=O)NC(C)CC)cc4n3c2=O)cc1 (centres undefined),1.03%,4.25%,1.5%,-1.23%,-1.76%
CCC(C)NC(=O)c1ccc2c(=O)n(C)c3nn(CC(=O)Nc4cccc(Cl)c4)c(=O)n3c2c1 (centres undefined),3.6%,0.512%,3.22%,2.3%,-2.46%

SMILES,"activity change, negative = inhibition [1]","activity change, negative = inhibition [2]","activity change, negative = inhibition [3]","activity change, negative = inhibition [4]","activity change, negative = inhibition [5]"
CCCn1c(=O)c2cc(F)ccc2n2c(SCC(=O)NC(C)CC)nnc12 (centres undefined),6.97%,0.416%,15.5%,12.6%,10%
CCOC(=O)N1CCN(Cc2nccn2CCOC)CC1,-3.48%,-8.32%,-1.35%,-9.52%,-6.26%
COc1ccc(-c2nc(-c3ccc(S(=O)(=O)N4CCC(C)CC4)cc3)no2)c(OC)c1,-6.73%,0.063%,-1.95%,-4.32%,-9.7%
CCCCc1ccc(CN2C[C@@H]3CC[C@H](C2)N(Cc2ccccn2)C3=O)s1,-8.47%,-2.84%,-4.25%,-10.1%,-17.8%
CC(C)NC(=O)Cn1nc2nc(Nc3ccc(F)cc3)ccn2c1=O,-8.84%,-0.514%,-3.42%,-5.9%,-8.57%
CCC(CC)C(=O)NCc1cccnc1Oc1cccc(C(F)(F)F)c1,-0.278%,-0.481%,1.44%,-1.6%,-12.8%
O=C1NC2(CCN(CC3CCCCC3)CC2)COc2ccccc21,-4.33%,-0.006%,-7.24%,-3.18%,3.63%
CC(NC(=O)c1n[nH]c2ccccc12)C(=O)N1CCN(c2ccccn2)CC1 (centres undefined),12.8%,1.91%,12.9%,7.08%,8.86%
CCc1cc2c(cc3n2CC(C)(C(=O)NC2CCC(C)CC2)N(Cc2ccc(C)cc2)C3=O)s1 (centres undefined),1.33%,0.659%,4.62%,-3.65%,1.4%
CC(C)(O)c1ccc2c(c1)ncn2-c1cccc(-c2ccccc2C#N)c1,-38.3%,-23.4%,-43.6%,-56.4%,-43%
CCCn1c(=O)c2ccccc2n2c(SCC(=O)Nc3ccccc3F)nnc12,-10.1%,1.52%,1.55%,-11.7%,-1.16%
O=[N+]([O-])c1cn2c(n1)OC[C@@H](OCc1ccc(-c3ccc(OC(F)(F)F)cc3)nc1)C2,-0.307%,-4.51%,9.68%,-22.4%,-6.94%
CN1C(=O)c2cc(C(=O)N3CCN(c4ncccn4)CC3)nn2CC1(C)C(=O)NC1CCCCCC1 (centres undefined),-5.57%,0%,-2.63%,-7.67%,-5.57%
CC1(C(=O)NC2CCCC2)Cn2c(cc3ccccc32)C(=O)N1C1CCCCC1 (centres undefined),-2.78%,1.93%,-2.4%,-5.55%,-4.39%
CC(C)c1ccc(NC(=O)c2ncn3c2C(=O)N(C2CC2)C(C)(C(=O)NCc2ccc(F)cc2)C3)cc1 (centres undefined),-10.5%,0%,2.6%,0.362%,1.8%
COCC1CN(Cc2c(C)n[nH]c2C)CC12CCNCC2 (centres undefined),-4.47%,-8.37%,-8.63%,-2.29%,-1.5%
CC(C)=CCC[C@](C)(O[C@@H]1O[C@H](CO[C@@H]2O[C@H](CO)[C@@H](O)[C@H](O)[C@H]2O)[C@@H](O)[C@H](O)[C@H]1O)C1CC[C@]2(C)[C@@H]1[C@H](O)CC1[C@@]3(C)CC[C@H](O[C@@H]4O[C@H](CO)[C@@H](O)[C@H](O)[C@H]4O[C@@H]4O[C@H](CO)[C@@H](O)[C@H](O)[C@H]4O)C(C)(C)[C@@H]3CC[C@]12C (some centres undefined),-1.98%,–,3.69%,–,–
CN1C(=O)c2cc(C(=O)Nc3ccccc3Br)nn2CC1(C)C(=O)NC1CCCCC1 (centres undefined),3.67%,0%,6%,8.74%,3.13%
Cc1ccc(CCNC(=O)c2nnn3c2COC(c2ccc(Cl)cc2)C3)cc1 (centres undefined),2.63%,0%,1.94%,-1.91%,0.929%

SMILES,"activity change, negative = inhibition [1]","activity change, negative = inhibition [2]","activity change, negative = inhibition [3]","activity change, negative = inhibition [4]","activity change, negative = inhibition [5]"
CC(C)OCCCNC(=O)CCCc1nnc2n3nc(-c4ccccc4)nc3c3ccccc3n12,1.3%,4.39%,4.14%,11.1%,-0.598%
CC(=O)N1CCC(NCc2cccnc2Oc2ccccc2C)CC1,-4.57%,0.007%,-1.11%,-2.8%,0.316%
COc1ncc(Nc2ncc([C@@H](C)N3CCN(S(C)(=O)=O)CC3)cc2-c2nc(C)nc(N)n2)cc1F,-17.6%,-14.9%,-18.4%,-22.3%,-32.2%
CC(C)(OC1OC(CO)C(O)C(O)C1O)C1CCC(O)(CO)C2CC(=O)C(C)(O)C2C1 (centres undefined),4.79%,5.28%,9.09%,-5.54%,0.727%
CCOC(=O)c1cc2n(n1)CC(C)(C(=O)NCc1ccccc1)N(CCc1ccc(OCC)cc1)C2=O (centres undefined),-3.13%,-1.08%,2.83%,-2.57%,-2.89%
CCOc1cc(CC(=O)NC(CC(C)C)c2ccccc2N2CCCCC2)ccc1C(=O)O (centres undefined),-4.69%,–,1.61%,–,–
CS(=O)(=O)c1ccc(-c2cnc(N)c(C(=O)Nc3ccccc3)n2)cc1,-4.09%,7.77%,4.65%,-10.1%,-1.7%
CCOc1ccccc1CN1C(=O)c2cc3ccccc3n2CC1(C)C(=O)NCCCOC(C)C (centres undefined),3.79%,0.785%,1.68%,5.47%,0.169%
NS(=O)(=O)c1cc(Cl)c(Cl)c(S(N)(=O)=O)c1,6.22%,10.5%,8.41%,-3.73%,5.28%
CC(C)CCNC(=O)C1(C)Cn2c(cc3ccccc32)C(=O)N1CCCc1ccccc1 (centres undefined),-2.11%,6.35%,0.185%,-3.89%,-1.42%
CCc1nc(-c2c3n(c(=O)n(CC(=O)Nc4cccc(C)c4)c2=O)CCCCC3)no1,-2.35%,0.324%,1.39%,-1.65%,1.68%
CCOC(=O)c1cc2n(n1)CC(C)(C(=O)NC1CCCC1)N(c1cccc(OC)c1)C2=O (centres undefined),0.522%,0.73%,0.905%,5%,3.13%
Cc1ccc(NC(=O)N2Cc3c(sc4c3CCCC4)-n3cccc3C2c2ccccc2)cc1 (centres undefined),1.98%,4.25%,4.75%,-1.17%,5%
COC(=O)c1ncn2c1C(=O)N(c1ccc3c(c1)OCO3)C(C)(C(=O)NCCCOC(C)C)C2 (centres undefined),3.42%,0.477%,14.7%,4.07%,9.9%
COCc1c(O)c(C(=O)O)c(C)c2c1OC(=O)c1c(C)cc(O)c(CO)c1O2,-12.7%,-10.2%,4.63%,-16.5%,-8.46%
C=Cc1ccc(CSc2nnc3n(Cc4ccccc4)c(=O)c4ccccc4n23)cc1,-0.516%,3.3%,-3.92%,-0.244%,1.73%
Cc1ccccc1N1C(=O)c2cc(-c3ccco3)nn2CC1(C)C(=O)NC1CCCCC1 (centres undefined),-4.17%,2.35%,-6.92%,2.54%,-6.43%
C[C@@H]1O[C@@H](O[C@H]2[C@H](O)[C@@H](O)[C@H](O[C@H]3[C@H](O[C@H]4CC[C@@]5(C)C(=CC[C@@H]6C5CC[C@]5(C)[C@@H]7[C@H](C[C@@H]65)O[C@]5(CC[C@@](C)(CO[C@@H]6O[C@H](CO)[C@@H](O)[C@H](O)[C@H]6O)O5)[C@H]7C)C4)O[C@H](CO)[C@@H](O)[C@@H]3O)O[C@@H]2CO)[C@H](O)[C@H](O)[C@H]1O (some centres undefined),1.1%,0.307%,11.5%,-12.7%,-4.63%
